No constants are given. Whether binding was seen depends on the method and setting. Some entries that bind do so weakly or less than the wild type. For some of these results: Sequences can lack the tags named with a protein.

What all share (test): cell aggregation assay; S2 cells transfected separately, mixed after the medium change, induced with 0.5 mM CuSO4 and gently shaken for several hours; aggregates seen by phase contrast and fluorescence microscopy
Test [1] deals with T1, ALCAM-GFP (UniProt Q13740).
T1 sequence: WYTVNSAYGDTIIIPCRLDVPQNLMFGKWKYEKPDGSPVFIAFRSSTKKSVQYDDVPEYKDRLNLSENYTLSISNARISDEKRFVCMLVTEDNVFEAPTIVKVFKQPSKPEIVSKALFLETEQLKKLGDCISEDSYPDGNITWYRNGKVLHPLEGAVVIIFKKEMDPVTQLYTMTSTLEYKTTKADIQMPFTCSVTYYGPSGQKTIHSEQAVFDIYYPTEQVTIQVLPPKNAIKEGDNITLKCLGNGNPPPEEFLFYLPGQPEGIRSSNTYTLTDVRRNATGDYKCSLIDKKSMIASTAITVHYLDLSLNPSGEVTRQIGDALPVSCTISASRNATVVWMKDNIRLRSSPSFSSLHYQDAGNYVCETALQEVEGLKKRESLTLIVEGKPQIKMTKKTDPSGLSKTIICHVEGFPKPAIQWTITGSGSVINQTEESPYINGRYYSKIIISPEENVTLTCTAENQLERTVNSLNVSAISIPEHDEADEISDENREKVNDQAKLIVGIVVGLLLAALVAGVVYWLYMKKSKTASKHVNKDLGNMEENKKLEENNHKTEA

The target in test [2] is T2, Necl-3-GFP (Necl-3/SynCAM-2 carboxy-terminally fused to GFP) (UniProt Q8N3J6).
T2 sequence: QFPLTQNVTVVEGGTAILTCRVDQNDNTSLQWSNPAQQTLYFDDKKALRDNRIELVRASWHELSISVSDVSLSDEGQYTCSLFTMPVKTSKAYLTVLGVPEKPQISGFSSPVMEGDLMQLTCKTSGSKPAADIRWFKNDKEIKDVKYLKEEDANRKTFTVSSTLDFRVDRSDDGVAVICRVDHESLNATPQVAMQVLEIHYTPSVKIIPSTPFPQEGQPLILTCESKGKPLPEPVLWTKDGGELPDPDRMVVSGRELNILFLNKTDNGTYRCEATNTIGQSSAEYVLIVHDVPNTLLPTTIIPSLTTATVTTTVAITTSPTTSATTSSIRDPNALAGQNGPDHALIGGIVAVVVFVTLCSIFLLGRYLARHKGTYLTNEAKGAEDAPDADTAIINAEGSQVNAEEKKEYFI

Test [3] deals with Necl-3-DsRed (UniProt Q8N3J6).
Test [4] deals with T3, Necl-3-myc (myc-tagged Necl-3) (UniProt Q8N3J6).
T3 sequence: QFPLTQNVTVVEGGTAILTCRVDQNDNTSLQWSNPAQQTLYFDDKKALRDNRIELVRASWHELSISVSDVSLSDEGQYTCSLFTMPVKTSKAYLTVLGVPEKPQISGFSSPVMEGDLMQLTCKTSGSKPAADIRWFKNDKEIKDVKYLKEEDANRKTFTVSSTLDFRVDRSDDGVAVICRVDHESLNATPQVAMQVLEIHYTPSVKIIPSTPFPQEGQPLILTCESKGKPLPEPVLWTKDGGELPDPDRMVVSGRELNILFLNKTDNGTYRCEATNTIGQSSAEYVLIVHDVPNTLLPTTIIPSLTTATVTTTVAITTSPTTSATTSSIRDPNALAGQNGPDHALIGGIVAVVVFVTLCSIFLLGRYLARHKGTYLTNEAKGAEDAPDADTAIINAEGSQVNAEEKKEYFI

B1: ALCAM-GFP (protein, UniProt Q13740 28-583)
chain: WYTVNSAYGDTIIIPCRLDVPQNLMFGKWKYEKPDGSPVFIAFRSSTKKSVQYDDVPEYKDRLNLSENYTLSISNARISDEKRFVCMLVTEDNVFEAPTIVKVFKQPSKPEIVSKALFLETEQLKKLGDCISEDSYPDGNITWYRNGKVLHPLEGAVVIIFKKEMDPVTQLYTMTSTLEYKTTKADIQMPFTCSVTYYGPSGQKTIHSEQAVFDIYYPTEQVTIQVLPPKNAIKEGDNITLKCLGNGNPPPEEFLFYLPGQPEGIRSSNTYTLTDVRRNATGDYKCSLIDKKSMIASTAITVHYLDLSLNPSGEVTRQIGDALPVSCTISASRNATVVWMKDNIRLRSSPSFSSLHYQDAGNYVCETALQEVEGLKKRESLTLIVEGKPQIKMTKKTDPSGLSKTIICHVEGFPKPAIQWTITGSGSVINQTEESPYINGRYYSKIIISPEENVTLTCTAENQLERTVNSLNVSAISIPEHDEADEISDENREKVNDQAKLIVGIVVGLLLAALVAGVVYWLYMKKSKTASKHVNKDLGNMEENKKLEENNHKTEA
Regarding B1, in test [1], the binding entry is reported as “binds”.

B2: Necl-1-DsRed (protein, UniProt Q8N126 25-398)
chain: NLSQDDSQPWTSDETVVAGGTVVLKCQVKDHEDSSLQWSNPAQQTLYFGEKRALRDNRIQLVTSTPHELSISISNVALADEGEYTCSIFTMPVRTAKSLVTVLGIPQKPIITGYKSSLREKDTATLNCQSSGSKPAARLTWRKGDQELHGEPTRIQEDPNGKTFTVSSSVTFQVTREDDGASIVCSVNHESLKGADRSTSQRIEVLYTPTAMIRPDPPHPREGQKLLLHCEGRGNPVPQQYLWEKEGSVPPLKMTQESALIFPFLNKSDSGTYGCTATSNMGSYKAYYTLNVNDPSPVPSSSSTYHAIIGGIVAFIVFLLLIMLIFLGHYLIRHKGTYLTHEAKGSDDAPDADTAIINAEGGQSGGDDKKEYFI
For B2, the binding result in test [2] is reported as “binds”.

B3: Necl-3-GFP (Necl-3/SynCAM-2 carboxy-terminally fused to GFP) (protein, UniProt Q8N3J6 25-435)
chain: QFPLTQNVTVVEGGTAILTCRVDQNDNTSLQWSNPAQQTLYFDDKKALRDNRIELVRASWHELSISVSDVSLSDEGQYTCSLFTMPVKTSKAYLTVLGVPEKPQISGFSSPVMEGDLMQLTCKTSGSKPAADIRWFKNDKEIKDVKYLKEEDANRKTFTVSSTLDFRVDRSDDGVAVICRVDHESLNATPQVAMQVLEIHYTPSVKIIPSTPFPQEGQPLILTCESKGKPLPEPVLWTKDGGELPDPDRMVVSGRELNILFLNKTDNGTYRCEATNTIGQSSAEYVLIVHDVPNTLLPTTIIPSLTTATVTTTVAITTSPTTSATTSSIRDPNALAGQNGPDHALIGGIVAVVVFVTLCSIFLLGRYLARHKGTYLTNEAKGAEDAPDADTAIINAEGSQVNAEEKKEYFI
Regarding B3, in test [2], the binding entry was “binds”.

B4: Necl-3-DsRed (protein, UniProt Q8N3J6 25-435)
chain: QFPLTQNVTVVEGGTAILTCRVDQNDNTSLQWSNPAQQTLYFDDKKALRDNRIELVRASWHELSISVSDVSLSDEGQYTCSLFTMPVKTSKAYLTVLGVPEKPQISGFSSPVMEGDLMQLTCKTSGSKPAADIRWFKNDKEIKDVKYLKEEDANRKTFTVSSTLDFRVDRSDDGVAVICRVDHESLNATPQVAMQVLEIHYTPSVKIIPSTPFPQEGQPLILTCESKGKPLPEPVLWTKDGGELPDPDRMVVSGRELNILFLNKTDNGTYRCEATNTIGQSSAEYVLIVHDVPNTLLPTTIIPSLTTATVTTTVAITTSPTTSATTSSIRDPNALAGQNGPDHALIGGIVAVVVFVTLCSIFLLGRYLARHKGTYLTNEAKGAEDAPDADTAIINAEGSQVNAEEKKEYFI
Regarding B4, the binding result in test [1] is recorded as “no binding”; in test [3], “binds”.

B5: Necl-2-GFP (protein, UniProt Q9BY67 45-442)
chain: QNLFTKDVTVIEGEVATISCQVNKSDDSVIQLLNPNRQTIYFRDFRPLKDSRFQLLNFSSSELKVSLTNVSISDEGRYFCQLYTDPPQESYTTITVLVPPRNLMIDIQKDTAVEGEEIEVNCTAMASKPATTIRWFKGNTELKGKSEVEEWSDMYTVTSQLMLKVHKEDDGVPVICQVEHPAVTGNLQTQRYLEVQYKPQVHIQMTYPLQGLTREGDALELTCEAIGKPQPVMVTWVRVDDEMPQHAVLSGPNLFINNLNKTDNGTYRCEASNIVGKAHSDYMLYVYDPPTTIPPPTTTTTTTTTTTTTILTIITDSRAGEEGSIRAVDHAVIGGVVAVVVFAMLCLLIILGRYFARHKGTYFTHEAKGADDAADADTAIINAEGGQNNSEEKKEYFI
With B5, the binding entry in test [4] is on record as “binds”.

B6: Necl-4-DsRed (protein, UniProt Q8NFZ8 21-388)
chain: PGAGQEVQTENVTVAEGGVAEITCRLHQYDGSIVVIQNPARQTLFFNGTRALKDERFQLEEFSPRRVRIRLSDARLEDEGGYFCQLYTEDTHHQIATLTVLVAPENPVVEVREQAVEGGEVELSCLVPRSRPAATLRWYRDRKELKGVSSSQENGKVWSVASTVRFRVDRKDDGGIIICEAQNQALPSGHSKQTQYVLDVQYSPTARIHASQAVVREGDTLVLTCAVTGNPRPNQIRWNRGNESLPERAEAVGETLTLPGLVSADNGTYTCEASNKHGHARALYVLVVYDPGAVVEAQTSVPYAIVGGILALLVFLIICVLVGMVWCSVRQKGSYLTHEASGLDEQGEAREAFLNGSDGHKRKEEFFI
Consider B6, for which the binding entry in test [2] is “binds”.

The values are drawn from paper PMC2176061.
